Source: the supplement of paper PMC6135742
Counter-ions that a name gives are not always drawn. ± gives the standard deviation of the averaged measurements. The full ranking holds about 2,600 compounds; the median of “MBP+ mature oligodendrocyte number relative to DMSO vehicle control” is about -0.34, and the highest 2% start at about 13. This is one part of the list.

System: jimpy (Plp1 jimpy) mouse iPSC-derived oligodendrocyte progenitor cells
Test: MBP+ mature oligodendrocyte number relative to DMSO vehicle control (SDs above negative control mean); higher = more surviving jimpy oligodendrocytes (rescue)
Conditions: 10 µM; 3 days
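Further: 10 µM single dose with 3-day oligodendrocyte differentiation.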

Structure (SMILES) | MBP+ mature oligodendrocyte number
COc1ccc2c(c1)C(=O)N(CCc1ccc(S(=O)(=O)NC(=O)NC3CCCCC3)cc1)C(=O)C2(C)C [Gliquidone] | 1.61
C=CCc1ccc(O)c(-c2cc(CC=C)ccc2O)c1 [Magnolol] | -0.22
NS(=O)(=O)Cc1noc2ccccc12 [Zonisamide] | 0.807
C[C@H](NC[C@H](O)CP(=O)(O)Cc1ccccc1)c1ccc(Cl)c(Cl)c1 | 1.34
CC(=O)c1cc([N+](=O)[O-])c(Sc2ccc(F)cc2F)s1 | -3.06
Cc1cn([C@H]2C[C@H](N=[N+]=[N-])[C@@H](CO)O2)c(=O)[nH]c1=O [3'-Azido-3'-deoxythymidine] | -0.472
Cc1cn([C@H]2C[C@H](N=[N+]=[N-])[C@@H](CO)O2)c(=O)[nH]c1=O [Zidovudine] | -1.56
COc1ccc([C@@H]2Sc3ccccc3N(CCN(C)C)C(=O)[C@@H]2OC(C)=O)cc1 [Diltiazem hydrochloride] | -1.59
COc1ccc([C@@H]2Sc3ccccc3N(CCN(C)C)C(=O)[C@@H]2OC(C)=O)cc1 [Diltiazem HCl] | -1.01
O=C(O)C[C@H](O)C[C@H](O)/C=C/c1c(C2CC2)nc2ccccc2c1-c1ccc(F)cc1 [Pitavastatin Calcium] | < -5.15
O=c1[nH]c2cc(Cl)ccc2c(O)c1-c1cccc(Oc2ccccc2)c1 | -0.676
Cc1ccc(C)c(OCCCC(C)(C)C(=O)O)c1 [Gemfibrozil] | 1.51
COc1cc2c(cc1OC)[C@@H]1Cc3ccc(OC)c(OC)c3CN1CC2 [Rotundine] | 1.12
O=C(CCCN1CCC(O)(c2ccc(Cl)cc2)CC1)c1ccc(F)cc1 [Haloperidol] | 2.36 ± 1.1
CN1CCC(CNc2ccc3ncc(-c4cccc(OC(F)(F)F)c4)n3n2)CC1 [SGI-1776 free base] | < -4.81
C[C@H](NC(=O)CCc1nc2ccccc2c(=O)[nH]1)c1ccccc1 | 0.693
NCC(=O)CCC(=O)O [5-Aminolevulinic acid HCl] | 0.955
Cc1ccc(Sc2ccccc2N2CCNCC2)c(C)c1 | -4.64
O=C(O)c1ccc(-n2nc(-c3ccccc3O)nc2-c2ccccc2O)cc1 [Deferasirox] | 0.0731
CC(N)(Cc1ccc(O)cc1)C(=O)O (racemic) [DL-alpha-Methyl-p-tyrosine] | 1.37

Structure (SMILES) | MBP+ mature oligodendrocyte number
O=C(NCc1cccc(O)c1)Nc1nc(-c2ccncc2)cs1 | -4.83
COC(=O)CCc1ccc(OCC(O)CNC(C)C)cc1 (centres undefined) [Esmolol HCl] | 1.25
COCCOC(=O)C1=C(C)NC(C)=C(C(=O)OC(C)C)C1c1cccc([N+](=O)[O-])c1 (centres undefined) [Nimodipine] | 0.263 ± 7.7
NCCS [Cysteamine HCl] | 1.08
NCCS [Cysteamine hydrochloride] | -1.15
COc1c(C)c2c(c(O)c1C/C=C(\C)CCC(=O)OCCN1CCOCC1)C(=O)OC2 [Mycophenolate Mofetil] | < -5.15
CN1C(C(=O)Nc2ccccn2)=C(O)c2ccccc2S1(=O)=O [Piroxicam] | 0.743 ± 2.6
COC(=O)[C@@H](N)Cc1ccc(O)c(O)c1 [L-3,4-Dihydroxyphenylalanine methyl ester hydrochloride] | 2.07
COc1ccc2c(c1)c(CC(=O)O)c(C)n2Cc1ccc(Cl)cc1 [1-(4-Chlorobenzyl)-5-methoxy-2-methylindole-3-acetic acid] | -0.119
CC1(C)CC(=O)c2c(C(F)(F)F)nn(-c3ccc(C(N)=O)c(N[C@H]4CC[C@H](OC(=O)CN)CC4)c3)c2C1 | < -6.01
CC1(C)[C@@H](O)CC[C@]2(C)[C@H]3C(=O)C=C4[C@@H]5C[C@@](C)(C(=O)O)CC[C@]5(C)CC[C@@]4(C)[C@]3(C)CC[C@@H]12 [Enoxolone] | 2.35
C[C@H]1COC2(CCN(c3nc(=O)c4cc(C(F)(F)F)cc([N+](=O)[O-])c4s3)CC2)O1 (racemic) [BTZ043 Racemate] | 1.24
O=C1OC(=O)[C@H]2[C@@H]1[C@@H]1CC[C@H]2O1 [Norcantharidin] | -2.83
CC(C)n1cnc2c(NCCc3ccc(O)cc3)nc(-c3csc4ccccc34)nc21 [StemRegenin 1 (SR1)] | < -6.01
O=C(NNc1ccccc1)c1ccncc1 | 0.992
Cc1cc(F)c(Nc2ncnc3cc(OCc4ccccc4)ccc23)cc1O | -5.77
CCCCC1(C2CCCC2)Cc2cc(OCC(=O)O)c(Cl)c(Cl)c2C1=O (stereo in doubt) [R(+)-Butylindazone] | 0.712
Cn1cncc1[C@@](N)(c1ccc(Cl)cc1)c1ccc2c(c1)c(-c1cccc(Cl)c1)cc(=O)n2C [Tipifarnib] | < -6.7
Cc1nnc(SCC2=C(C(=O)O)N3C(=O)[C@@H](NC(=O)Cn4cnnn4)[C@H]3SC2)s1 [Cefazolin sodium] | -0.865
